The list shows a part of the results. The full chains were built here from the parent and the listed change. Inactive controls read about 0.05.
B1: TEV protease; numbered along this chain (parent)
chain: MGESLFKGPRDYNPISSSICHLTNESDGHTTSLYGIGFGPFIITNKHLFRRNNGTLVVQSLHGVFKVKDTTTLQQHLVDGRDMIIIRMPKDFPPFPQKLKFREPQREERICLVTTNFQTKSMSSMVSDTSCTFPSGDGIFWKHWIQTKDGQCGSPLVSTRDGFIVGIHSASNFTNTNNYFTSVPKNFMELLTNQEAQQWVSGWRLNADSVLWGGHKVFMVKPEEPFQPVKEATQL

Variants of: B1
Assay: raw area under fraction-flipped curve 0-4 h after induction (AUC4h, not background-subtracted), DNA-recorder readout of cleavage of the substrate (dimensionless); higher = more cleavage of the substrate by the protease variant
Details: temperature: 34 °C; time window: 0-4 h after rhamnose induction
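Note: Bxb1 expression induced with 0.2% (w/v) L-rhamnose at OD600 near 0.5, cultures sampled hourly, flipped fraction per protease–substrate barcode pair counted by paired-end Illumina sequencing.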

Row | Variant | area with substrate ENCYFQS | area with substrate ENEYFQS | area with substrate ENGYFQS | area with substrate ENPYFQS | area with substrate ENQYFQS | area with substrate ENVYFQS | area with substrate ENYYFQS | area with substrate ENFYFQS | area with substrate ENHYFQS | area with substrate ENSYFQS
1 | A170E | 0.0518 | 0.0647 | 0.0478 | 0.0636 | 0.0966 | 0.0593 | 0.0543 |  |  | 
2 | A170S | 0.0638 |  |  | 0.0622 | 0.0602 | 0.0712 |  | 0.0621 | 0.0495 | 0.0411
3 | T129H |  | 0.0643 |  | 0.0498 | 0.0767 |  |  |  |  | 0.0557
4 | N193C | 0.0762 |  | 0.0423 |  | 0.061 |  |  |  | 0.0602 | 
5 | N193Q | 0.0489 |  | 0.0992 |  | 0.0632 | 0.0452 |  | 0.0682 |  | 
6 | N193Y | 0.0593 | 0.0684 |  |  | 0.0635 |  |  |  |  | 
7 | V183G | 0.0429 | 0.0589 | 0.0575 | 0.0511 | 0.0441 | 0.0598 |  | 0.0906 | 0.0521 | 0.05
8 | H215F | 0.0287 | 0.0635 | 0.0589 |  | 0.0598 |  |  | 0.0551 | 0.0572 | 0.0802
9 | F180H | 0.0498 |  |  |  |  |  |  | 0.0637 |  | 0.0808
10 | N178S | 0.0464 | 0.0611 |  |  | 0.0416 | 0.0702 | 0.0807 | 0.0667 |  | 0.15
11 | N178Q | 0.065 | 0.0731 |  | 0.0465 | 0.065 |  |  |  |  | 
12 | N178C | 0.061 |  |  |  |  |  |  | 0.0649 |  | 
13 | N178Y | 0.0849 | 0.0479 |  |  | 0.0744 | 0.124 |  |  |  | 
14 | E108G |  | 0.0581 | 0.0425 |  | 0.0435 | 0.074 |  |  |  | 0.0548
15 | S60G |  | 0.0486 |  |  | 0.0644 |  |  |  |  | 
16 | D91T |  |  |  |  | 0.0811 |  |  |  | 0.0481 | 
17 | W203D | 0.078 |  |  |  | 0.0518 | 0.0289 |  |  |  | 
18 | S201N | 0.0592 | 0.0596 | 0.0513 | 0.0567 | 0.0558 | 0.0459 |  | 0.0654 |  | 0.0722
19 | S209A | 0.0625 |  |  |  |  |  | 0.0532 |  |  | 
20 | S209E | 0.0702 | 0.0581 | 0.056 | 0.0586 | 0.0696 |  |  | 0.0614 |  | 0.0628
21 | S209H | 0.0675 |  |  |  | 0.0835 | 0.0921 |  |  |  | 0.0713
22 | G35A |  | 0.0487 | 0.038 | 0.0573 | 0.0633 |  |  |  |  | 
23 | G35I |  |  |  |  | 0.0492 |  |  |  |  | 

Row | Variant | area with substrate ENCYFQS | area with substrate ENEYFQS | area with substrate ENGYFQS | area with substrate ENPYFQS | area with substrate ENQYFQS | area with substrate ENVYFQS | area with substrate ENYYFQS | area with substrate ENFYFQS | area with substrate ENHYFQS | area with substrate ENSYFQS
24 | M88L |  | 0.0608 |  | 0.0598 | 0.0577 | 0.0849 |  |  |  | 0.0689
25 | F65V |  |  |  |  | 0.0694 |  | 0.056 |  |  | 
26 | R106N |  | 0.0602 |  |  | 0.0105 | 0.0771 | 0.0774 |  | 0.0578 | 0.0659
27 | V58D |  |  |  | 0.034 |  |  |  |  |  | 0.0564
28 | V58M |  | 0.0812 |  |  | 0.0553 |  | 0.0717 | 0.0635 |  | 
29 | V58S |  |  | 0.0321 |  | 0.0531 | 0.0384 | 0.0542 |  | 0.069 | 0.0509
30 | N116T |  |  |  |  |  |  |  |  |  | 0.0691
31 | N175S | 0.0632 | 0.0614 | 0.0667 |  |  |  |  |  | 0.0201 | 0.0723
32 | G150Y | 0.0691 | 0.0565 | 0.053 | 0.062 | 0.0428 | 0.0648 |  | 0.0571 |  | 0.0323
33 | C131P |  |  |  | 0.0786 |  | 0.0896 |  |  | 0.0799 | 
34 | W141N |  | 0.0696 |  |  |  | 0.0566 | 0.0495 |  | 0.0584 | 0.0698
35 | P93D |  | 0.0612 | 0.0598 | 0.0735 |  | 0.0812 | 0.0463 |  | 0.0329 | 0.0582
36 | L99W |  |  |  | 0.0466 | 0.0605 | 0.0644 |  |  |  | 0.0488
37 | T159V | 0.0621 | 0.0558 |  | 0.0584 | 0.0541 |  |  |  |  | 
38 | G153M | 0.0591 | 0.0499 | 0.0478 |  | 0.0485 |  |  | 0.0588 |  | 
39 | G153I | 0.0467 |  | 0.045 | 0.0193 |  |  |  | 0.0325 | 0.0362 | 
40 | M188R | 0.0642 | 0.0749 |  | 0.0514 |  |  | 0.0508 | 0.0612 | 0.0735 | 0.0594
41 | S135H |  | 0.0719 | 0.0593 |  | 0.0687 | 0.0369 |  | 0.0616 |  | 
42 | D149P | 0.0731 |  |  |  | 0.0751 | 0.0583 |  |  | 0.0578 | 0.0615
43 | D137T |  |  |  |  | 0.005 |  |  |  |  | 0.0562
44 | L211N | 0.131 |  | 0.067 |  |  |  |  |  | 0.0448 | 0.0551
45 | T119W |  | 0.0636 |  |  |  | 0.0749 |  |  |  | 
46 | P228W | 0.0735 |  |  | 0.0675 |  | 0.0573 |  |  |  | 0.0656

Same assay, conditions: temperature: 34 °C; time window: 0-4 h after rhamnose induction

Row | Variant | area with substrate ENDYFQS | area with substrate ENKYFQS | area with substrate ENIYFQS | area with substrate ENNYFQS | area with substrate ENRYFQS | area with substrate ENTYFQS | area with substrate ENMYFQS | area with substrate ENWYFQS
47 | T129H | 0.0598 | 0.0577 |  |  |  |  |  | 
48 | N193C |  |  | 0.0639 | 0.0508 | 0.0553 | 0.0702 |  | 
49 | N193Q | 0.0789 |  | 0.0973 |  |  |  | 0.064 | 
50 | N193Y | 0.0567 |  |  | 0.0724 |  |  |  | 
51 | V183G | 0.0357 |  | 0.0523 |  |  |  |  | 
52 | H215F |  |  |  | 0.0508 |  |  |  | 
53 | N178S |  | 0.0665 | 0.12 | 0.0597 | 0.0367 |  |  | 
54 | N178Q |  |  |  | 0.0504 | 0.0904 |  |  | 
55 | N178C |  |  |  | 0.065 |  |  |  | 
56 | N178Y | 0.0672 |  | 0.181 | 0.0553 |  | 0.0866 |  | 
57 | E108G | 0.062 |  |  |  | 0.083 | 0.0636 |  | 
58 | S60G | 0.0739 |  | 0.107 | 0.0566 | 0.0705 |  |  | 
59 | D91T | 0.0553 |  |  | 0.0637 |  | 0.0617 |  | 
60 | W203D | 0.0588 | 0.0631 |  | 0.0447 |  |  |  | 0.0028
61 | S201N | 0.0589 | 0.0634 |  | 0.0419 | 0.0575 | 0.057 | 0.0686 | 
62 | S209A |  |  |  |  |  | 0.0604 |  | 
63 | S209E | 0.066 |  |  |  | 0.122 | 0.0584 |  | 0.0592
64 | S209H | 0.103 |  |  |  | 0.0624 | 0.0733 | 0.0702 | 
65 | G35A | 0.0516 |  |  |  |  |  |  | 
66 | G35I | 0.0624 |  |  |  |  |  |  | 
67 | M88L | 0.053 | 0.0613 |  |  | 0.0378 | 0.0598 |  | 
68 | F65V | 0.0607 |  |  |  |  |  |  | 

Row | Variant | area with substrate ENDYFQS | area with substrate ENKYFQS | area with substrate ENIYFQS | area with substrate ENNYFQS | area with substrate ENRYFQS | area with substrate ENTYFQS | area with substrate ENMYFQS | area with substrate ENWYFQS
69 | R106N | 0.059 |  |  |  |  |  |  | 
70 | V58D | 0.0495 |  |  | 0.0215 |  |  |  | 0.0425
71 | V58M | 0.0521 |  | 0.118 |  | 0.0484 | 0.0618 |  | 
72 | V58S | 0.0404 |  | 0.0326 | 0.0642 |  |  | 0.0674 | 0.0022
73 | N116T | 0.0701 |  |  |  |  |  | 0.066 | 
74 | N175S |  |  |  |  |  | 0.0585 |  | 
75 | G150Y | 0.0731 |  |  | 0.0646 | 0.0674 |  |  | 
76 | C131P | 0.0561 |  |  |  |  |  |  | 
77 | W141N | 0.0476 |  |  |  |  |  |  | 0.0598
78 | P93D | 0.0426 |  |  | 0.0649 |  |  |  | 0.0547
79 | L99W | 0.0741 |  | 0.102 |  |  |  |  | 
80 | T159V | 0.0428 |  | 0.0946 | 0.0725 | 0.0636 |  |  | 
81 | G153M | 0.0445 |  | 0.0546 | 0.0502 |  | 0.0492 |  | 
82 | G153I |  |  |  | 0.0553 |  |  |  | 
83 | M188R |  |  |  | 0.0513 | 0.0579 | 0.0623 | 0.0727 | 
84 | S135H | 0.0572 |  | 0.0573 | 0.0778 |  | 0.0471 | 0.0611 | 
85 | D149P |  | 0.0597 |  | 0.0656 |  |  |  | 0.0528
86 | D137T | 0.0409 |  |  |  |  |  |  | 
87 | L211N | 0.0698 | 0.0829 |  |  |  |  | 0.0875 | 
88 | T119W | 0.0583 |  |  |  |  |  |  | 
89 | P228W |  |  |  |  | 0.058 | 0.0508 |  | 

Reference: the supplement of paper PMC12217912
